In PubChem BioAssay AID1346428 (National Center for Advancing Translational Sciences (NCATS), 2018):
Among all 48,000 compounds or so, about 1,200 (2.5%) were called active. Roughly 2% stayed inconclusive and do not appear here.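 The calls were made as follows: active = activation of at least 60% and not above a set upper limit (about 1 call in 100 departs from these limits); inconclusive = activation of 40% to 60%, or above that upper limit; inactive = activation under 40%.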 This is one part of the list.

These molecules were tested against Probable G-protein coupled receptor 32 (Homo sapiens) (UniProt O75388) (assay: qHTS for Agonists of Human Resolvin D1 Receptor DRV1). Details: CHO-K1 GPR32 beta-arrestin PathHunter luminescence, 90 min; at 76.9 µM; active compounds read high; zero percent set by DMSO-only wells.
Chain of UniProt O75388 (O75388 whole entry, looked up, the tested form may be a part): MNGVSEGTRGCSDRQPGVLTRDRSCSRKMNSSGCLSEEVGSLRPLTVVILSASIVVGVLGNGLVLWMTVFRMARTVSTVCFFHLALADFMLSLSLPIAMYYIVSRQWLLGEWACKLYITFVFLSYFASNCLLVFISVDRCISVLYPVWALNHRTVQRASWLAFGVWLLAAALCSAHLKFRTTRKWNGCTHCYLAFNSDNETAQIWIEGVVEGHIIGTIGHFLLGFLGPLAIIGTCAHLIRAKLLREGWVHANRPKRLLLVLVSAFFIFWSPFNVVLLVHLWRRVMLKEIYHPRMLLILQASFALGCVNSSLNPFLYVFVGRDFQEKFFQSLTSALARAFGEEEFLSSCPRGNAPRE
How it was run: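 GPR32 activation in stably transfected CHO-K1 cells, detected as beta-arrestin recruitment by enzyme-fragment complementation. Compound exposure: 90 min, 37 °C.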
Also: 0% is about no effect.

activation, inactive:
CCOCCc1nnc(NC(=O)C(=O)c2cc(C)n(-c3ccc(C)cc3C)c2C)s1 -12.6%
COc1ccc(N(CC(=O)Nc2cccc(Cl)c2)S(=O)(=O)c2c(C)[nH]c(=O)[nH]c2=O)cc1 -9.64%
CCOc1ccc(Nc2nc(-c3cccc(Cl)c3)c3c(n2)-c2ccccc2OC3)cc1 -24.9%
CCn1c(C)c(C)c2cc(C(=O)NCC(C)c3ccccc3)ccc21 (stereo not drawn) -27.4%
COc1ccc2c(c1)c1c(c(=O)n(Cc3ccccc3)c(=O)n1CC(=O)Nc1ccccc1OC)n2C -76.3%
COc1ccc(N2CCN(CCCNC(=O)C3COc4ccccc4C3)CC2)cc1 (stereo not drawn) -15.9%
O=C(c1ccc2c(Cl)c3c(nc2c1)CCCC3)N1CCN(c2ccc(Cl)cc2)CC1 -1.96%
O=C(Nc1nc2c(F)cc(F)cc2s1)c1ccc(S(=O)(=O)N2CCc3ccccc32)cc1 -5.96%
C[C@@H](O[C@H]1OCCN(Cc2n[nH]c(=O)[nH]2)[C@H]1c1ccc(F)cc1)c1cc(C(F)(F)F)cc(C(F)(F)F)c1 27.3%
COC(=O)c1ccc(N2C(=O)Cc3cc(OC)c(OC)cc3C2c2ccc(F)cc2)cc1 (stereo not drawn) 15.8%
Oc1cccc(O)c1 -2.17%
CCN1C(C(=O)c2ccccc2)=C(OC(=O)COc2ccc(C)cc2)c2ccccc2S1(=O)=O -63.2%
Cc1ccc(CNC(=O)CSc2nc3c(sc4ccccc43)c(=O)n2CCCC(=O)NCCO)cc1 -1.1%
O=C(Nc1ccc(F)cc1)Nc1csc2c1CCCC2 7.02%
CCOc1ccc(-n2c(=O)c3c4c(sc3n(CC(=O)NC(C)CC)c2=O)CCCCC4)cc1 (stereo not drawn) -2.85%
C[C@@H]1CCC[C@H](C)N1 -12.7%
CCOc1ccc2nc(NC(=O)c3nc(SCc4ccccc4F)ncc3Cl)sc2c1 1.69%
Cc1cc(C)cc(-n2c(SCC(=O)Nc3ccccc3)nc3c(oc4ccccc43)c2=O)c1 -27.9%
Cc1ccc(-n2nc3c(=O)n(C(C)C(=O)NCc4ccc(OC(C)C)cc4)nc(C)c3c2C)cc1 (stereo not drawn) -2.29%
CCC(Cc1ccccc1)NC(=O)Cn1nc(C)n2c(cc3occc32)c1=O (stereo not drawn) -9.46%
O=C(NCc1ccc(Cl)cc1)C1CCN(S(=O)(=O)c2cccc3nonc23)CC1 -9.96%
CCCCn1c(=O)n(CC2CCC(C(=O)NCCCOC)CC2)c(=O)c2sccc21 (stereo not drawn) 1.36%
COc1cc(OC)cc(-c2nc3nc(C)c(CCC(=O)Nc4cc(C)cc(C)c4)c(C)n3n2)c1 -1.77%
CC(C)Cn1cc(NC(=O)N2CCN(c3ccc(F)cc3)CC2)c2ccccc2c1=O -20%
CC(=O)c1ccc(NC(=O)CSC2=Nc3ccccc3N=C(c3ccc(F)cc3)C2)cc1 -16.3%
Cc1cc(=O)[nH]c2nnc(SCc3ccc(Cl)cc3Cl)n12 6.18%
CC(=O)c1cccc(NC(=O)c2sc(-n3nc(C)c(Cc4ccccc4)c3C)nc2C)c1 6.88%
CCCS(=O)(=O)N1CC(=O)N(c2cccc(Cl)c2)C(C)(C(=O)NC2CCCCC2)C1 (stereo not drawn) -14.2%
COc1cccc(-c2cc(C(=O)NCCc3ccc(OC)c(OC)c3)no2)c1 7.65%
O=C(Cn1c(SCc2ccc(F)cc2)nc2cccnc21)Nc1ccccc1F -3.42%
COCCNC(=O)c1ccc2c(c1)N(Cc1cc(C)ccc1C)C(=O)c1ccccc1S2=O (stereo not drawn) -34.2%
Cc1ccc2nc(COc3cccc(NC(=O)Nc4ccc(C)c(Cl)c4)c3)cc(=O)n2c1 0.816%
Cc1ccc2c(CNC3CCCCC3)c(C(=O)O)n(Cc3ccc(F)cc3)c2c1 13.5%
COc1cccc2cc(-c3nc(-c4ccccc4F)no3)c(=O)oc12 -0.534%
CCOc1ccccc1CNC(=O)c1cc2c(=O)n(Cc3cccnc3)ccc2nc1C -11.8%
O=C(Nc1ccc(F)c(Cl)c1)c1ccc2c(Cl)c3c(nc2c1)CCCC3 14.6%
CCC(=O)N1CCc2cc(Br)cc(S(=O)(=O)NCCc3cccc(C)c3)c21 -2.52%
O=C(O)c1cc(=O)c2c(Cl)cc(Cl)cc2[nH]1 4.79%
Cc1cccc(C(=O)Nc2cc3c(cc2C)n(C)c(=O)n3C)c1 -9.2%
Cc1cc(C)c2nc(C)cc(Nc3cccc(C(=O)O)c3)c2c1 -10.9%
CCOc1cc(C(=O)Nc2cc3c(cc2N2CCCC2)n(C)c(=O)c(=O)n3C)cc(OCC)c1OCC 26.2%
Cc1nnc(N2CCN(C(=O)NCCC(C)C)CC2)c2nn(-c3ccc(Cl)cc3)c(C)c12 -8.95%
CCc1ccc(S(=O)(=O)Nc2cccc(-c3ccc(N4CCCCC4)nn3)c2)s1 -7.99%
O=C1C(c2ccc(F)cc2)N(CCc2ccc(Cl)cc2)C(=O)CN1C1CCCCC1 (stereo not drawn) -17.3%
O=C(Nc1sc2c(c1C(=O)NCc1ccco1)CCCC2)c1cc(=O)c2cc(Cl)ccc2o1 5.96%
COc1ccc(NC(=O)Nc2cc(-c3cn4cccnc4n3)ccc2C)cc1 18.2%
O=C(NC1CCN(Cc2ccccc2)CC1)c1ccc(Cn2c(=O)c3ccccc3n(Cc3ccc(Cl)cc3)c2=O)cc1 5.22%
CC(=O)N1CCc2c(sc3c2c(=O)n(-c2ccccc2)c(=O)n3CC(=O)c2ccccc2)C1 2.42%
COc1ccccc1NC(=O)Cn1c(C)cc(C)c(C#N)c1=O 7.07%
O=C(CCCCn1c(=O)c2ccccc2n(Cc2cccc(F)c2)c1=O)NCCc1ccccc1 -5.68%
Cc1ccc(C)c(NC(=O)CN2C(=O)CCc3cc(S(=O)(=O)N4CCCCC4)ccc32)c1 -5.72%
CC(=O)N1CCC(N(Cc2ccc(C)o2)C(=O)Nc2cccc(C(F)(F)F)c2)CC1 23.3%
Cc1ccc2c(c1)-c1nc(-c3ccc4c(c3)NC(=O)CO4)cc(-c3ccccc3)c1CO2 -1.65%
